Laboratory results published in US7592316B2, “Peptides as NS3-serine protease inhibitors of hepatitis C virus” (Schering Corporation, priority 2000, dated 2009).

target: HCV NS3/NS4A protease (strain 1a) (Hepatitis C virus genotype 1a, UniProt P27958); experiment: biochemical; conditions: Compounds prepared by Solid Phase Synthesis, Table 3; read-out: Ki* CLASS

Compound	Ki
CCCC(NC(=O)[C@@H]1C[C@@H](OCc2ccc(Cl)c(Cl)c2)CN1C(=O)C(NC(=O)OCC(C)C)C1CCCCC1)C(=O)C(=O)NCC(=O)NC(COC(C)(C)C)C(N)=O (stereo partly drawn) (Isobutyloxycarbonyl-[ξChg][Hyp](Benzyl(3,4-Cl2))[X2]G[ξS](tBu)-NH2)	101 to 1000 nM
CCCC(NC(=O)[C@@H]1C[C@@H](OCc2ccccc2)CN1C(=O)C(NC(=O)CC1CCCCC1)C1CCCCC1)C(=O)C(=O)NCC(=O)NC(C(=O)O)c1ccccc1 (stereo partly drawn) (Cyclohexylacetyl-[ξChg][Hyp](Bn)[X2]G[ξPhg]-OH)	1 to 100 nM
CCCC(NC(=O)[C@@H]1C[C@@H](OCc2ccccc2)CN1C(=O)C(NC(=O)OCC(C)C)C(C)C)C(=O)C(=O)NCC(=O)NC(COCc1ccccc1)C(N)=O (stereo partly drawn) (Isobutyloxycarbonyl-[ξV][Hyp](Bn)[X2]G[ξS](Bn)-NH2)	> 1000 nM
CCCC(NC(=O)[C@@H]1C[C@@H](OCc2ccccc2)CN1C(=O)[C@H](CCCC(=O)O)NC(=O)c1c(F)c(F)c(F)c(F)c1C(=O)O)C(=O)C(=O)NCC(=O)N[C@H](C(N)=O)c1ccccc1 (stereo partly drawn) (X25-[Aad][Hyp](Bn)[X2]G[Phg]-NH2)	101 to 1000 nM
CCCC(NC(=O)[C@@H]1C[C@@H](OCc2ccccc2)CN1C(=O)[C@H](CCCC(=O)OC(C)(C)C)NC(=O)c1cccc(C(=O)O)c1)C(=O)C(=O)NCC(=O)N[C@H](C(N)=O)c1ccccc1 (stereo partly drawn) ({Benzoyl(3-COOH)}-[Aad](OtBu)[Hyp](Bn)[X2]G[Phg]-NH2)	> 1000 nM
CCCC(NC(=O)[C@@H]1CCCN1C(=O)C(NC(=O)OCC(C)C)C(C)C)C(=O)C(=O)NCC(=O)NC(Cc1ccc2ccccc2c1)C(N)=O (stereo partly drawn) (Isobutyloxycarbonyl-[ξV]P[X2]G[ξ2Nal]-NH2)	> 1000 nM
CCCCC(NC(=O)[C@@H]1C[C@@H](OCc2ccccc2)CN1C(=O)C(NC(=O)[C@@H]1CCCC[C@H]1C(=O)c1ccccc1)C1CCCCC1)C(=O)C(=O)NCC(=O)NC(C(N)=O)c1ccccc1 (stereo partly drawn) (X49-[ξChg][Hyp](Bn)[X4]G[ξPhg]-NH2)	> 1000 nM

same assay, conditions: HCV protease continuous assay results, Table 1; read-out: Ki* Range

Compound	Ki
CCCC(NC(=O)[C@@H]1CC2(CN1C(=O)[C@@H](NC(=O)OC1CCOCC1)C1CCCCC1)SCCCS2)C(=O)C(=O)NCC(=O)NC(C(=O)OC(C)(C)C)c1ccccc1 (stereo partly drawn) [Example 126] (X56-[Chg][Pro(4,4-S(CH2)3S)][X2]G[ξPhg]-OtBu)	101 to 1000 nM
CCCCCC(NC(=O)[C@@H]1C[C@@H](OC(C)(C)C)CN1C(=O)C(NC(=O)OCC(C)C)C(C)(C)C)C(=O)C(=O)NCC(=O)N[C@H](C(=O)N(C)C)c1ccccc1 (stereo partly drawn) [Example 270] (Isobutyloxycarbonyl-[ξTle][Hyp](tBu)[X102]G[Phg]-NMe2)	> 1000 nM
CCCCC(NC(=O)C1[C@@H]2[C@H](CN1C(=O)[C@@H](NC(=O)OCC(C)C)C(C)(C)C)C2(C)C)C(=O)C(=O)NCC(=O)N[C@H](C(=O)N(C)C)c1ccccc1 (stereo partly drawn) [Example 331]	1 to 100 nM
CCCC(NC(=O)C1CC2(CN1C(=O)C(NC(=O)OCC(C)C)C1CCCCC1)SCCCS2)C(=O)C(=O)NCC(=O)NC(C(=O)NC(C)C)c1ccccc1 (stereo not drawn) [Example 149] (Isobutyloxycarbonyl-[Chg][ξPro(4,4-S(CH2)3S)][X2]G[Phg]-NHiPr; configuration not given here)	1 to 100 nM
CCCCC(NC(=O)[C@@H]1CC2(CN1C(=O)[C@@H](NC(=O)OCC(C)C)C1CCCCC1)SCCCS2)C(=O)C(=O)NCC(=O)NC(C(=O)N(C)OC)c1ccccc1 (stereo partly drawn) [Example 143] (Isobutyloxycarbonyl-[Chg][Pro(4,4-S(CH2)3S)][X4]G[ξPhg]-{N(Me)OMe})	101 to 1000 nM

same assay, conditions: Table 4; HCV NS3/NS4A protease, spectrophotometric assay, 30° C., pH 6.5; read-out: Ki* Range

Ki	Compound
1 to 100 nM	CC(C)COC(=O)N[C@H](C(=O)N1CC2C([C@H]1C(=O)N[C@@H](CC(C)C)C(=O)C(=O)NCC(=O)N[C@H](C(=O)N(C)C)c1ccccc1)C2(C)C)C(C)(C)C (stereo partly drawn)
1 to 100 nM	CCCC(NC(=O)[C@@H]1C[C@@H](NC(=O)OCC(C)C)CN1C(=O)[C@@H](NC(=O)c1cc(Cl)c(Cl)cc1C(=O)O)C1CCCCC1)C(=O)C(=O)NCC(=O)N[C@H](C(N)=O)c1ccccc1 (stereo partly drawn)
101 to 1000 nM	CCCC(NC(=O)C1C[C@@H](NS(=O)(=O)c2ccc(OC)cc2)CN1C(=O)[C@@H](NC(=O)OCC(C)C)C1CCCCC1)C(=O)C(=O)NCC(=O)N[C@H](C(N)=O)c1ccccc1 (stereo partly drawn)
1 to 100 nM	CCCC(NC(=O)[C@@H]1C[C@@H](NC(=O)Nc2ccc(OC)cc2)CN1C(=O)[C@@H](NC(=O)OCC(C)C)C1CCCCC1)C(=O)C(=O)NCC(=O)N[C@H](C(N)=O)c1ccccc1 (stereo partly drawn)

Compound	Ki
CCCC(NC(=O)C1C[C@@H](NS(=O)(=O)c2ccc3ccccc3c2)CN1C(=O)[C@@H](NC(=O)OCC(C)C)C1CCCCC1)C(=O)C(=O)NCC(=O)N[C@H](C(N)=O)c1ccccc1 (stereo partly drawn) (Isobutyloxycarbonyl-[Chg][ξPro(4R-NH2)](2Naphthylsulfonyl)[X2]G[Phg]-NH2)	101 to 1000 nM
CCCC(NC(=O)[C@@H]1CC(C)(C)CN1C(=O)C(NC(=O)OCC(C)C)[C@@H](C)c1ccccc1)C(=O)C(=O)NCC(=O)N[C@H](C(=O)N(C)C)c1ccccc1 (stereo partly drawn) (Isobutyloxycarbonyl-[ξPhe(3S-Me)][Pro(4,4-Me2)][X2]G[Phg]-NMe2)	1 to 100 nM

same assay, conditions: Table 5; HCV NS3/NS4A protease, 30° C., pH 6.5; read-out: Ki* Range

Ki	Compound
101 to 1000 nM	C=CCNC(=O)C(=O)C(CCC)NC(=O)[C@@H]1[C@@H]2[C@H](CN1C(=O)[C@@H](NC(=O)OC1CC[C@@H](C)C1)C(C)(C)C)C2(C)C (stereo partly drawn)
101 to 1000 nM	C=CCCC(NC(=O)[C@@H]1[C@H]2[C@@H](CN1C(=O)[C@@H](NC(=O)OCC1CC1)C1Cc3ccccc3C1)C2(C)C)C(=O)C(=O)NCC=C (stereo partly drawn)

same assay, conditions: Table 5; HCV NS3/NS4A protease, spectrophotometric assay, 30° C., pH 6.5; read-out: Ki* Range

Compound	Ki
CCCCC(NC(=O)[C@@H]1[C@H]2[C@@H](CN1C(=O)[C@@H](NC(=O)OC(C)CC)C(C)(C)C)C2(C)C)C(=O)C(=O)NCC(=O)N[C@H](C(=O)N(C)C)c1ccccc1 (stereo partly drawn) (X69-[Tle][Pro(3S,4R-CMe2)][X4]G[Phg]-NMe2)	1 to 100 nM

*1 amine or outer side, *2 acyl side, *3 side chain or, on linkers, in order; H or OH if unused. Where a SMILES comes first, the peptide text is derived from it. [ ]: non-standard residue; d: D form. The star is where a group is joined. ξ: configuration not given here. Pro(3S,4R-CMe2) = CC1(C)[C@H]2[C@@H](C(=O)O)NC[C@H]21; ξPro(4R-NH2) = O=C(C1C[C@@H](N[*:3])CN1[*:1])[*:2]; Pro(4,4-S(CH2)3S) = O=C(O)[C@@H]1CC2(CN1)SCCCS2; 2Naphthylsulfonyl = O=S(=O)(c1ccc2ccccc2c1)*; ξPro(4,4-S(CH2)3S) = O=C(O)C1CC2(CN1)SCCCS2; X49 = O=C(c1ccccc1)[C@@H]1CCCC[C@H]1C(=O)*; ξPhe(3S-Me) = C[C@@H](c1ccccc1)C(N)C(=O)O; Benzoyl(3-COOH) = O=C(O)c1cccc(C(=O)*)c1; Pro(4,4-Me2) = CC1(C)CN[C@H](C(=O)O)C1; X25 = O=C(O)c1c(F)c(F)c(F)c(F)c1C(=O)*; X102 = CCCCCC(N[*:1])C(=O)C(=O)[*:2]; Isobutyloxycarbonyl = CC(C)COC(=O)*; Benzyl(3,4-Cl2) = Clc1ccc(C*)cc1Cl; Cyclohexylacetyl = O=C(CC1CCCCC1)*; X4 = CCCCC(N[*:1])C(=O)C(=O)[*:2]; ξ2Nal = NC(Cc1ccc2ccccc2c1)C(=O)O; Hyp = O=C(O)[C@@H]1C[C@@H](O)CN1; X2 = CCCC(N[*:1])C(=O)C(=O)[*:2]; Aad = N[C@@H](CCCC(=O)O)C(=O)O; Chg = N[CH](C(=O)O)C1CCCCC1; Phg = N[CH](C(=O)O)c1ccccc1; Tle = CC(C)(C)[C@H](N)C(=O)O; ξChg = NC(C(=O)O)C1CCCCC1; ξPhg = NC(C(=O)O)c1ccccc1; ξTle = CC(C)(C)C(N)C(=O)O; X56 = O=C(OC1CCOCC1)*; ξV = CC(C)C(N)C(=O)O; X69 = CCC(C)OC(=O)*; N(Me)OMe = CON(C)*; Bn = c1ccc(C*)cc1; OtBu = CC(C)(C)O*; ξS = NC(CO)C(=O)O; NHiPr = CC(C)N*; tBu = CC(C)(C)*
